This is an account of results in paper PMC10726135.

The other results are listed elsewhere or left out. At the low end of the ranking the order means little. The protein was read in a cell extract, so binding may be indirect.

For this assay, the target named is T1, HNF4alpha2 (COS-7 nuclear extract) (UniProt P41235).
T1 sequence: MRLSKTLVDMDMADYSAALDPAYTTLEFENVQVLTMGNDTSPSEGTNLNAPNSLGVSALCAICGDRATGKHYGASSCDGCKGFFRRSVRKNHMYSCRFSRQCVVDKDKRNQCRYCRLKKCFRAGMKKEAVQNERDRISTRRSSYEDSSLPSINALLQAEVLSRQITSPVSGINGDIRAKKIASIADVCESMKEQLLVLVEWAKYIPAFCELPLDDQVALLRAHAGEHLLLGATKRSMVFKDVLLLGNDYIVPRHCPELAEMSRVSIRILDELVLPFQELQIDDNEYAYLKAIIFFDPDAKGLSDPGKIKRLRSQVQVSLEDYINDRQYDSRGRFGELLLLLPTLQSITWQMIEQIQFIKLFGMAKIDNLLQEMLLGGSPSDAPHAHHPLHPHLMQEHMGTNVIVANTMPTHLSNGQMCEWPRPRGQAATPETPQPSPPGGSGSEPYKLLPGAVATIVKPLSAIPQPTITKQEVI
Kind of assay: protein-binding microarray. The settings on record: COS-7 nuclear extract on double-stranded Agilent 4x180k PBM; binding buffer, salt, pH and temperature not given; high values mean tight binding; double strand, one strand shown; sequences stand for … in …GCCTAGGGAGATTAGAGTATCGGTCGA
On to TGTATTCATGAGCATGCTTCCCAAATGGAG, for which the binding signal (log2 normalized intensity) is -1.13.

AAGTACAAAAGAGGCTTCCTGGGCCAGGTC: the binding signal (log2 normalized intensity) is -1.03.

As for CGCTGTTGATGGGCAGCGCGGCGCGCTGGG, the binding signal (log2 normalized intensity) was -1.

On to CAAATTTGCCTTGTCCTTAGACAGTAACCC, for which the binding signal (log2 normalized intensity) was found to be 0.908.

As to CAGTTTTTGTTTGCACCTCACAGGAAGAAC, the binding signal (log2 normalized intensity) came out at 1.15.

In the case of TGCATAGACTGCCCAGAATTTCCTGTTAGA, the binding signal (log2 normalized intensity) was -0.238.

CCTGCCCATCCCGTGGACTCTGCCTGCCCT: the binding signal (log2 normalized intensity) came out at 3.08.

For the sequence CTGAAGGATATTGGCAACGCCTCAGAAGCA, the binding signal (log2 normalized intensity) is -1.01.

Consider AGTTCAACCATACACACATTCCAATCTTCT, for which the binding signal (log2 normalized intensity) was -0.221.

For AAGTTGAATTCTTGACTTTGGACTTTCAAA, the binding signal (log2 normalized intensity) stood at 5.18.

As for ATGAGGCCCCAGTGATGACAGCAAGATAAT, the binding signal (log2 normalized intensity) is -0.755.

On to TCTCTCCCTCCTCCTTTTTTTCCCCTCCCT, for which the binding signal (log2 normalized intensity) worked out at 4.61.

AAGCAATGCTGGGGACCTTTGGCCTTTACC: the binding signal (log2 normalized intensity) stood at 5.13.

CACTCAGGCACTGGGATCCAAAGTTCATGG: the binding signal (log2 normalized intensity) was 3.37.

With GCCAGTGTGGCTAACAATATGGGGTGGGGA, the binding signal (log2 normalized intensity) was -1.12.

On to GGAGCATGATGAAATTTCCTCTTACCACAT, for which the binding signal (log2 normalized intensity) is -1.07.

As to TAAATAGTGACAAATTGTATAGTTGCTGAT, the binding signal (log2 normalized intensity) is 0.637.

On to CAGCCAGCCTGAGGCAGTTGGAAAATATTT, for which the binding signal (log2 normalized intensity) was -1.18.

For GAATAGTTAAGTAACGTGTCAGAGGTCACT, the binding signal (log2 normalized intensity) was determined as 3.2.

Take TGCTCCAGCCAGAGGCCTTATCTGGCCGCC: the binding signal (log2 normalized intensity) is -1.07.

On to TGTGTACTCTATCCAGTAGAGGGCATAGCA, for which the binding signal (log2 normalized intensity) worked out at 1.72.

For TTGTTTTAAGTTCATAGGTCCTCTTGGAAG, the binding signal (log2 normalized intensity) was 1.34.

In the case of CTGGCAGAATTCCTTCTTGCTTAGGATAGG, the binding signal (log2 normalized intensity) was -1.14.

For AAAGTTCAAGTCATAACTGGATGGTGCCTA, the binding signal (log2 normalized intensity) is -1.13.

Regarding TAGACCTGGCCTCGGGGAGCTGTGGGCCTC, the binding signal (log2 normalized intensity) was -0.249.

In the case of TAGGGACCGCAAATAAAAGAGGGCCCCATC, the binding signal (log2 normalized intensity) was -1.03.

For the sequence GTGACCTCTTATCTCATCCTGTGACCAAGA, the binding signal (log2 normalized intensity) turned out to be 1.11.

For GGTCATTTGTTTTTACAGACAGGCATGACA, the binding signal (log2 normalized intensity) worked out at 1.37.

With CAGAGACGGCAAGCCATAGTTAACCCAGAA, the binding signal (log2 normalized intensity) is -0.915.

Consider TCCACACCCCAGCCTGCCCTCCTAGGGACA, for which the binding signal (log2 normalized intensity) came to 3.39.

Regarding CAGCCCTCCTCTCTGTAGTCCTCAGCAATA, the binding signal (log2 normalized intensity) was 0.713.

Regarding ACCAAGGACAAACTGAGGAGGACATACTCC, the binding signal (log2 normalized intensity) is -1.06.

As to TGTGTACGGACGCATCTGTCGGCTCTCGTA, the binding signal (log2 normalized intensity) is -0.918.

As to GACAGATAAGAAGGGGTCAGACCAGACAGC, the binding signal (log2 normalized intensity) is -0.316.

For the sequence GACGTTCTGCCCCTTATCTTCTGGCCACCT, the binding signal (log2 normalized intensity) came out at 1.91.

GACAGAAGCAGGACTTAAACACCAGTACTC: the binding signal (log2 normalized intensity) is -1.14.

Regarding CGGAGGGCGGGGCGGGGCAGCAGGGAAGAG, the binding signal (log2 normalized intensity) was -1.18.

On to AGCTAAATAAATAACTCTAAGAAATAGGTT, for which the binding signal (log2 normalized intensity) was -1.26.

Turning to AAACGTTCTTCTCTAACCCTCCTTTTAATC, the binding signal (log2 normalized intensity) was 1.36.

Consider CAACATGTGGGCAAATAGGATTAGGAAACC, for which the binding signal (log2 normalized intensity) is -0.788.
